Measured values from patent US7332596B1 (priority 1999, dated 2008).
Not every detail of the peptide structures is certain; ends, links or a residue may be inferred. Some entries repeat one wording, which the source may state once for all of them. Where a SMILES comes first, the peptide text is derived from it. Where no end group is shown, it is not given here.

Tests used:
Verticillium dahliae = format: cell-based; conditions: assayed at 25 ppm and 10 ppm, average inhibitory concentration
P.infestans = format: cell-based, Phytophthora infestans

| Compound | IC50 (24 hours) against Verticillium dahliae (Verticillium dahliae) [ppm] | antifungal activity in the presence of pIWF (P.infestans) | antifungal activity at 60 hours (Phytophthora infestans) | IC50 (24 hours) against P.infestans (Phytophthora infestans) [ppm] | IC50 (60 hours) against P.infestans (Phytophthora infestans) [ppm] | IC50 F. culmorum High salt (Fusarium culmorum) [µg/mL] | IC50 F. culmorum Low salt (Fusarium culmorum) [µg/mL] | IC50 (Fusarium culmorum; read-out: IC50 (μM) F. culmorum) [µM] | IC50 P. infestans High salt (Phytophthora infestans) [µg/mL] | IC50 P. infestans Low salt (Phytophthora infestans) [µg/mL] | IC50 (Phytophthora infestans; read-out: IC50 (μM) P. infestans) [µM] |
| --- | --- | --- | --- | --- | --- | --- | --- | --- | --- | --- | --- |
| VKVGLATKAERASRQQRKQRKNRQKTRRGTRKVKGAKAKK [FCWP7] | <10 | retained full activity | retained its antifungal activity | 10 | 25 | – | – | – | – | – | – |
| VKVGLATKAERASRQQRKQRKNRQKTLRGTRKVKGAKAKK [FCWP5] | <10 | retained full activity | – | 50 | >100 | – | – | – | – | – | – |
| VKVGLATKAERASRQQRKQRKNRQKTRRGTAKVKGAKAKK [FCWP3] | 10 | retained full activity | – | 25 | >100 | – | – | – | – | – | – |
| CC(C)C[C@H](NC(=O)CNC(=O)[C@@H](NC(=O)[C@H](CCCCN)NC(=O)[C@@H](N)C(C)C)C(C)C)C(=O)N[C@@H](C)C(=O)N[C@H](C(=O)N[C@@H](CCCCN)C(=O)N[C@@H](C)C(=O)N[C@@H](CCC(=O)O)C(=O)N[C@@H](CCCNC(=N)N)C(=O)N[C@@H](C)C(=O)N[C@@H](CO)C(=O)N[C@@H](CCCNC(=N)N)C(=O)N[C@@H](CCC(N)=O)C(=O)N[C@@H](CCC(N)=O)C(=O)N[C@@H](CCCNC(=N)N)C(=O)N[C@@H](CCCCN)C(=O)N[C@@H](CCC(N)=O)C(=O)N[C@@H](CCCNC(=N)N)C(=O)N[C@@H](CCCCN)C(=O)N[C@@H](CC(N)=O)C(=O)N[C@@H](CCCNC(=N)N)C(=O)N[C@@H](CCC(N)=O)C(=O)N[C@@H](CCCCN)C(=O)N[C@H](C(=O)N[C@@H](CC(C)C)C(=O)N[C@@H](CCCNC(=N)N)C(=O)NCC(=O)N[C@H](C(=O)N[C@@H](C)C(=O)N[C@@H](CCCCN)C(=O)N[C@H](C(=O)N[C@@H](CCCCN)C(=O)NCC(=O)N[C@@H](C)C(=O)N[C@@H](CCCCN)C(=O)N[C@@H](C)C(=O)N[C@@H](CCCCN)C(=O)N[C@@H](CCCCN)C(=O)O)C(C)C)[C@@H](C)O)[C@@H](C)O)[C@@H](C)O [FCWP1] (H-VKVGLATKAERASRQQRKQRKNRQKTLRGTAKVKGAKAKK-OH) | 10 | only slightly active | no activity | 15 | >100 | >50 | 5 | 1.11 | 20 | 5 | 1.11 |
| VKVGLATKAERASRQQRKQRKNRQKTLMGTAQVKGAKAKK [FCWP6] | 25 | – | – | 25 | >100 | – | – | – | – | – | – |
| VKVGLATKAERASRQQRKQRKNRQKTLRGTAQVKGAKAKK [FCWP4] | 20 | – | – | 20 | >100 | – | – | – | – | – | – |
| VKVGLATKAERASRQQRKQRKNRQKTLMGTAKVKGAKAKK [FCWP2] | 20 | – | – | 25 | >100 | – | – | – | – | – | – |
